This passage reports binding signal (log2 normalized intensity) results from PMC10726135.

Some of the results follow. At the low end of the ranking, values are background and their order means little. The protein was read in a cell extract, so binding may be indirect.

The experiment deals with T1, HNF4alpha2 (COS-7 nuclear extract) (UniProt P41235).
T1 sequence: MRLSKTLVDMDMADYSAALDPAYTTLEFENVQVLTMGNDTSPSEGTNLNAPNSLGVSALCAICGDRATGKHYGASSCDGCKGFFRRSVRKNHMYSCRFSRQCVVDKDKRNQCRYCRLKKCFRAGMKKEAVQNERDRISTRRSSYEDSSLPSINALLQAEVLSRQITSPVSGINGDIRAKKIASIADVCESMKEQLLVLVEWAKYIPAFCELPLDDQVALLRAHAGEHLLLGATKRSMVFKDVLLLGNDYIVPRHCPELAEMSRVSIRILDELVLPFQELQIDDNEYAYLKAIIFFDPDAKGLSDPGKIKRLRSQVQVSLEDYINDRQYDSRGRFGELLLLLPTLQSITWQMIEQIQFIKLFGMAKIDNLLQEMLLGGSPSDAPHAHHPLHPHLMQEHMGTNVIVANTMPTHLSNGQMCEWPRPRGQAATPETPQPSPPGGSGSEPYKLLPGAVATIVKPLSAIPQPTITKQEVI
The experiment can be described thus: protein-binding microarray. The settings on record: COS-7 nuclear extract on double-stranded Agilent 4x180k PBM; binding buffer, salt, pH and temperature not given; high values mean tight binding; double strand, one strand shown; sequences stand for … in …GCCTAGGGAGATTAGAGTATCGGTCGA
GAGATGAAAGGGGCCTCAGAGAAAGCCTGT: the binding signal (log2 normalized intensity) was -1.21.
The same measure for TTTATTCACTTCTCAAAGGACAGATCAATG: 1.91; for GCTGGAACTTGCTTCCTTATCTATATTTGC: 0.404.
The result for GCCAAACTCACAGCTTTTATGTCAAACCAC reads -1.02.
GCAAGGACGTGACCTTTATGGGAAAAAAAA: the binding signal (log2 normalized intensity) was 1.31.
The result for GATAGAGAAAGAAAAAGTACACACCTGCAA reads -1.17.
In the case of GCTACTGACCAGATGTTATTACTTAATGCT, the binding signal (log2 normalized intensity) was -1.04.
The result for CTCCTTTTGTGAGAGGTCAATGTCCAGTTC reads 5.91; that for GTGAGCATGGCTGTGTTCCAATAAACTTCA, -0.568; that for GTAAACTGGCCAGAAGGTCAGAGATCAGGT, 1.71.
The same measure for GATCAAGATACAGGTCAGACCCTGGAATTC: 0.0675; for TTGCTCTGCTTAAACCTTTCAAGGGATTCC: 0.308.
The same measure for CTGCCAAGACACAGAGAAAAAGAAGGTTGG: -1.18; for TGCCACGCAATGCATAGCAGAAACATAGAA: -1.23; for TCTCTCTGGCCTGTGGGGAGGTTATCTCGG: 0.998.
For GCAAGAAGAAGGTGGACATCGTGGTTGCAA, the binding signal (log2 normalized intensity) is -1.03.
The same measure for ACTCCTCTGTACAGCTCTTGTGCTCTGGAC: 1.09.
The same measure for CCATCCACGGGTCCATGATTGCTGTCTACT: 0.171.
The same measure for CCTCAAATACTCTGAGTAAACACAGACTTT: 0.491; for GTGTTCACAGGTGACCTCTGGCCACTGCAG: 2.75; for AAACCTTTGACCAATTGACCCTATCCACAT: 2.98.
In the case of TCAATACTCCACAAGACCACAAGGTGGCGA, the binding signal (log2 normalized intensity) was -1.22.
The same measure for AATAAATCAAGATCACTGCCTTGGAGGCAC: -1.19.
AGTTTGGTTTAAAGTTCAAGTCATAACTGG: the binding signal (log2 normalized intensity) was 2.32.
The same measure for AGCAGGTTGTACCTTGACCCAAGAAATAAA: 3.91; for CAGTGGGGACGCCTTCCCCTGCCACTTTCA: -1.08.
The result for AGGAGATTTGGCTTTGAATTCCACTTCTAC reads -1.08; that for CTTTAGTCAGAGATTTCTTTACCATACCAG, -0.914.
The result for GAACTGTCGCAGAAAACACAGAGATCTGAT reads -1.07; that for GCTTATCACTGGTGATGTGAACCTCGATCC, 3.28.
As for TCTAAGACCCATCCCTCAGGGTCCATATCC, the binding signal (log2 normalized intensity) was 2.84.
The same measure for TTATGCTTGCAGGTGTCAGGGGTCAATGTG: 3.9.
For the sequence AATAACTGCTTTGTGGCATCAGGGTCCACA, the binding signal (log2 normalized intensity) was determined as 2.59.
As for AGTCCAAAGTCTGCAGGGTAGGCAGACAGG, the binding signal (log2 normalized intensity) was 1.1.
The result for GGACACAGAATGACTTTCAGAAAGTCCTTG reads 0.299; that for CATTTTAACCTTTGGCTGGTAGAGCAGGTT, 2.6.
The result for CCGAGCCTCAGCCGGGAGAGGAGGCCCCCT reads 1.99; that for AAGGACCTAGAGCTATTCCTTTGAAATGTT, 0.04; that for TCTGCAAGGAAGGTGGGGGCCGCCCATTGG, -1.05.
With TCTGATCCTTTACAGAGATAAGAGGTGTCA, the binding signal (log2 normalized intensity) is 0.354.
The result for ACAGTACAAAGGTGAGCTTTTATCTTAAGT reads 2.25; that for AAATCCCTGGTCAAAGTCAACTCCTCCAAG, -1.12; that for CGTGGGCGTGAGTTTGCTGTCTTGACTTGG, 0.995.
The same measure for GCTGGAGCTCCTGGGCCAAAGGGCATTCTG: 3.88.
For the sequence GTTTTTAAGACAAACAAAAAACCCTAGAGA, the binding signal (log2 normalized intensity) was -1.14.
For TCTCACTGCAACCTGAGTGCCAGAGCTGTG, the binding signal (log2 normalized intensity) was -0.765.
In the case of TCTCTGACGCTCAGTAAATCTGCACTTTAC, the binding signal (log2 normalized intensity) worked out at 1.69.
The same measure for GTGCTAAAGGTCATATCCAAAATATTTGCA: 2.36; for AGCCTAGACAAGGCACCAAAGGAATCTACA: -1.19; for TGCCCAGCAGAAAAGCTGTACCAATTATTG: -1.07.
In the case of AAAGTGCATTGAAAGCACTAATTAACTGAG, the binding signal (log2 normalized intensity) was -0.473.
TTCATTATGGATAGGCACATATTGGATCTC: the binding signal (log2 normalized intensity) came to 1.67.
The same measure for GGTTTTTCCATTGTACTCAGTATGTGCTGA: 0.989; for TAGATGTGCTATATAAAAACTAACCATACT: -1.2.
With GACCTTTGACTGCAGAAGATAAGAATCTCT, the binding signal (log2 normalized intensity) was determined as 3.08.
As for ATAAGGCAGTGGTTTGCAGTTGGAAAGCTG, the binding signal (log2 normalized intensity) is -0.923.
The same measure for AATTTACATAACAGGTTTGTAACTTCTTGG: 0.844; for ATGTGTTTGCATGACTCATAAAGAACAGTT: 1.28.
The same measure for TTGACCTTCTCTGTTAACCCTTTGCAGCCC: 2.61; for TTCATTTGCCCAGCTGTTCCGTGTTCCAGA: 0.539; for TGTCTCCAGAAATCAACCTTTGATCGTTTG: 5.83.
The same measure for GGTCTACATGGAAGCCCAGATGACTGCCTT: -1.2; for GAAGCAATGGCCCTCAGCAAACCTTCTGGC: -1.21; for TGTGTTTCCCTCCCTGGTATGTACTTTCTT: 2.56.
In the case of TTCACCTTTCGCCCTTTGTCCTATGACTCT, the binding signal (log2 normalized intensity) was determined as 4.63.
The result for GTACAAAGTACAGAGATGGCACAGAGGAGG reads -0.738; that for GCATTTAGAAATAGTTGACTTTTCTAACAA, -1.1.
The result for AAATCTTCCCTCCTGTGAACTCGCGCCCCA reads 1.66; that for CAGAACAAAGTCCAGTAAGGACAGTTCCAG, 2.29; that for TAAAGCTAACCAGCTCTATCAGTCTGGGTC, -1.13.
Regarding GTAACCTTTGCCCCCCAAGTTGAAGCCATC, the binding signal (log2 normalized intensity) worked out at 5.16.
The result for GAGTGCCTCCATTTCACAAATGAGGGGACA reads -0.526.
The result for TAAAAGGATCATGGAATTTAATTAGCTTCT reads -1.14; that for CTGATGTGTTCGCCCCTAGGACACGCAGTT, 0.984; that for AAGGCATGCTTGGCATCCCTGTGGTATTTG, 0.27.
The result for AAGCTGAAAACAAATATTTGCCTAGGATTC reads -0.803.
In the case of GCAGAATCAAAGGTCAAAATATCTGATCGA, the binding signal (log2 normalized intensity) came to 3.32.
Consider TCACCTAACCACATTCTTTCTGCATCGCAG, for which the binding signal (log2 normalized intensity) is -1.13.
As to GTAAGTTCAAGAAGACCTTTGCTCCACGTT, the binding signal (log2 normalized intensity) came to 4.36.
The result for TGAAGATACTGGATAACCTTCCAGACAGAG reads -1.01.
The result for GGACGTGGAATAGATCAGCTTTCAACACTC reads -1.01; that for CCTCCCTCCCCCTTTCTCCGCTAAGTGGCT, 2.62.
The same measure for CCTCTGCTGCGATCACCCAGGTCCAAGTCA: 1.09.
In the case of TTGGTTTATGTTCACCTCAGCACTGAGATA, the binding signal (log2 normalized intensity) came out at 0.424.
The result for GGTTCACATTTTTGTCATCTTCACTTTTGT reads 1.61; that for ATGATGGCCAGTTCAGCGCGTCTTAGCACT, -1.09.
TACAGTAATTAGACAACATCGAAGACTTCA: the binding signal (log2 normalized intensity) is -1.12.
The result for AGGAAGTCGCTTGCCAGTATGCCACTGGTT reads -1.1; that for AGAAGTATGACAACAAAGCATTATCTACAC, -1.11.
The result for TCTGATAAGGGTGTTTGTCCTTTGTTGCAA reads 1.92; that for AAATTTCCGTGTCGAAACTACAAACGGATA, -1.16.
TGCCCTTGACTTTTTGTGGGGGCAGATGTT: the binding signal (log2 normalized intensity) turned out to be 1.86.
Turning to AAGAAAGTTGAGGTGAATACACAGCTAGCA, the binding signal (log2 normalized intensity) is -1.02.
